B1: sIL-15Rα-IL-2 fusion protein (receptor)
chain: ITCPPPMSVEHADIWVKSYSLYSRERYICNSGFKRKAGTSSLTECVLNKATNVAHWTTPSLKCIRDPALVHQRPAPPSTVTTAGVTPQPESLSPSGKEPAASSPSSNNTAATTPAIVPGSQLMPSKSPSTGTTEISSHESSHGTPSQTTAKNWELTAPASHQPPGVYPQGHSDTTLQ[no letters for about 150 residues]
notes: Its first 30 residues are the IL-15Rα signal peptide, which is not part of the secreted protein; also called sIL-15R-IL-2; full length soluble IL-15Rα
B2: sIL-15Rα-sushi-IL-2 (receptor)
chain: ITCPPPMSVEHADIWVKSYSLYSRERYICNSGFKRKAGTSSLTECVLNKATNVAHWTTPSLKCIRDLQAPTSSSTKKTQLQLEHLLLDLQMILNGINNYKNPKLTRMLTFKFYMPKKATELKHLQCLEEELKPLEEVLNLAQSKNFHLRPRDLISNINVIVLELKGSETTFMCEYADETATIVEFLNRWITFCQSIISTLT
notes: The signal peptide is left out; also called Sushi15-IL-2

Legend:
Recombinant human IL-15 [1] = molecular target: T1, Recombinant human IL-15 (human, UniProt P40933 part only); assay: SPR, BIAcore 2000
T1 construct: also called rIL-15; human rIL-15
Procedure: (§1) These experiments were performed with a BIACore 2000 biosensor (BIACore, Uppsala, Sweden). rIL-15 was covalently linked to CM5 sensor chips, and the binding of increasing concentrations of sIL-15Rα-IL-2, sIL-15Rα-sushi-IL-2 or sIL-15Rα-sushi was monitored. Analysis of sensograms was performed using BIAlogue kinetics evaluation software.

Recombinant human IL-15 [2] = molecular target: T1, Recombinant human IL-15; assay: SPR, analysis of sensorgrams
Procedure: as §1

Recombinant human IL-15 [3] = molecular target: T1, Recombinant human IL-15; assay: Competition with 125I-rIL-15 binding to TF-1 cells
Procedure: Labeling with [¹²⁵I]-iodine of human rIL-15, sIL-15Rα-sushi and RLI fusion protein, and subsequent binding experiments were performed as described previously (19). For internalization, cells were equilibrated at 4° C. with labeled sIL-15Rα-sushi or RLI, and the temperature switched to 37° C. At different time intervals, two samples were washed and centrifuged. One of the cell pellets was treated with glycine-HCl buffer 0.2 M, pH 2.5, whereas the other was treated with PBS pH 7.4 at 4° C. for 5 min. After centrifugation, total ligand binding was determined from the pellet of the cells treated with PBS, whereas the membrane bound and internalized fractions were determined respectively from the supernatant and pellet of cells treated with acid pH.
The three soluble forms of IL-15Rα were tested for their ability to compete out the binding of radio-iodinated IL-15 to IL-15Rα expressed by the human cell line TF-1 which also expresses the IL-15Rγ chain, but not the IL-15Rβ chain (FIG. 1D).

T1 sequence (P40933 49-162 limits assumed): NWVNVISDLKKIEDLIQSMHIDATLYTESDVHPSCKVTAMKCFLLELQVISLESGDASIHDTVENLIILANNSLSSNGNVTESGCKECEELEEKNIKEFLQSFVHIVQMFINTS

| Binder | Kd (Recombinant human IL-15 [1]) [nM] | koff (Recombinant human IL-15 [1]) [s⁻¹] | kon (Recombinant human IL-15 [1]) [M⁻¹ s⁻¹] | fold lower affinity than sIL-15Rα-IL-2 (Recombinant human IL-15 [1]) [fold] | Kd (Recombinant human IL-15 [2]) [nM] | fold decrease of affinity against sIL-15Rα-IL-2 (Recombinant human IL-15 [3]) [fold] |
| --- | --- | --- | --- | --- | --- | --- |
| B1 | 0.038 | 1.4e-05 | 370000 | – | – | – |
| B2 | 0.42 | 0.00013 | 310000 | 10 | 0.428 | 3.5 |

Source: US20090238791A1 (INSTITUT NATIONAL DE LA SANTE ET DE LA RECHERCHE MEDICALE …, published 2009)
